The whole screen tested about 39,000 compounds, of which about 220 (0.56%) showed activity. This is one part of the list.
Each compound was assayed on Escherichia coli K-12 BW25113 (assay: relative growth (OD600 normalised to plate interquartile mean) (fraction); higher = less growth inhibition, active = 0.2 or less). Settings: 50 µM; LB; incubation time: overnight (16-24 h).
With `C[C@H](CO)N1C[C@H](C)[C@H](CN(C)Cc2ccc(Cl)c(Cl)c2)OCCCC[C@H](C)Oc2ccc(NC(=O)Nc3ccc(F)cc3)cc2C1=O` the relative growth was inactive: 0.977. With `C[C@H]1CN([C@@H](C)CO)S(=O)(=O)c2ccc(-c3cccnc3)cc2O[C@H]1CN(C)C(=O)c1cccc(F)c1` the relative growth was inactive: 1.01. With `Cc1noc(C)c1NC(=O)Nc1ccc2c(c1)C(=O)N([C@H](C)CO)C[C@@H](C)[C@@H](CN(C)Cc1ccccc1)OCCCC[C@@H](C)O2` the relative growth was inactive: 1.01. `O=C(C[C@@H]1CC[C@H]2[C@@H](COC[C@@H](O)CN2C(=O)Nc2cccc(F)c2)O1)NCCCN1CCOCC1` was tested, and the relative growth was inactive: 0.951. For `C[C@@H]1CCCCO[C@H](CN(C)Cc2ccc(C(F)(F)F)cc2)[C@H](C)CN([C@@H](C)CO)C(=O)c2cc(NS(=O)(=O)c3cccs3)ccc2O1`, the relative growth was inactive: 0.999. For `CC(C)=CCC1=C(O)C(=O)c2ccccc2C1=O`, the relative growth was inactive: 0.796. For `C[C@@H]1CN([C@H](C)CO)C(=O)c2ccccc2-c2ccccc2CO[C@@H]1CN(C)C(=O)Nc1ccccc1C(F)(F)F`, the relative growth was inactive: 0.991. In the case of `COCC(=O)N1C[C@H](C)[C@H](OC)CN(C)C(=O)c2cc(NC(=O)Nc3cccc(F)c3)ccc2OC[C@H]1C`, the relative growth is reported as inactive: 0.989. For `C[C@@H]1CN([C@H](C)CO)C(=O)Cc2cc(NS(=O)(=O)c3cn(C)cn3)ccc2O[C@H]1CN(C)Cc1ccc(C(=O)O)cc1`, the relative growth was inactive: 0.973. For `O=C(C[C@H]1CC[C@@H]2[C@H](COC[C@H](O)CN2S(=O)(=O)c2ccc(Cl)cc2)O1)NCC1CCCCC1`, the relative growth was inactive: 0.696. For `O=C(C[C@H]1CC[C@H](NC(=O)CN2CCOCC2)[C@H](CO)O1)NCCc1ccncc1`, the relative growth was inactive: 0.994. `CC(C)NC(=O)N(C)C[C@H]1OCCCC[C@H](C)Oc2ccc(NC(=O)Nc3ccc(F)cc3)cc2C(=O)N([C@@H](C)CO)C[C@H]1C` was tested, and the relative growth was inactive: 0.985. For `Cc1noc(C)c1NC(=O)N(C)C[C@H]1OCCCC[C@@H](C)Oc2ccc(NC(=O)C3CCCCC3)cc2C(=O)N([C@H](C)CO)C[C@H]1C`, the relative growth was inactive: 1. With `CCOC(=O)[C@H]1CC(CC2OCCO2)=NO1` the relative growth was inactive: 1.01. With `C[C@H]1CN([C@@H](C)CO)S(=O)(=O)c2ccc(C#CC3(O)CCCC3)cc2O[C@@H]1CN(C)C(=O)Nc1cccc(F)c1` the relative growth was inactive: 1.02. In the case of `C[C@H](CO)N1C[C@H](C)[C@@H](CN(C)Cc2ccc(C(=O)O)cc2)Oc2ccc(NC(=O)CCCN(C)C)cc2C1=O`, the relative growth is reported as inactive: 0.969. In the case of `CO[C@@H]1CN(C)C(=O)c2ccc(NC(=O)c3cc(C)on3)cc2OC[C@@H](C)N(S(=O)(=O)c2ccccc2)C[C@H]1C`, the relative growth is reported as inactive: 1. With `C[C@@H]1CN([C@H](C)CO)C(=O)c2cc(NS(C)(=O)=O)ccc2O[C@@H]1CN(C)Cc1ccc(C(=O)O)cc1` the relative growth was inactive: 0.996. With `COc1ccc(NC(=O)Nc2ccc3c(c2)C(=O)N([C@@H](C)CO)C[C@@H](C)[C@H](CN(C)C(=O)NC(C)C)OCCCC[C@@H](C)O3)cc1` the relative growth was inactive: 0.996. With `C/C(=N\N)c1c(C)cc(C)[nH]c1=O` the relative growth was inactive: 1.02. `Cc1ccc(S(=O)(=O)N(C)C[C@H]2OCCCC[C@@H](C)Oc3ccc(NC(=O)Nc4cccc5ccccc45)cc3C(=O)N([C@@H](C)CO)C[C@H]2C)cc1` was tested, and the relative growth was inactive: 1.03. `Cc1noc(C)c1S(=O)(=O)Nc1ccc2c(c1)CC(=O)N([C@H](C)CO)C[C@H](C)[C@H](CN(C)Cc1ccc(C(=O)O)cc1)O2` was tested, and the relative growth was inactive: 1. `COc1ccc(S(=O)(=O)Nc2ccc3c(c2)CC(=O)N([C@H](C)CO)C[C@@H](C)[C@H](CN(C)C)O3)cc1` was tested, and the relative growth was inactive: 0.994. In the case of `C[C@@H]1CN([C@@H](C)CO)C(=O)c2cc(NC(=O)CCC(F)(F)F)ccc2O[C@@H]1CN(C)Cc1ccc(Cl)c(Cl)c1`, the relative growth is reported as inactive: 0.985. With `COc1ccc(NC(=O)Nc2ccc3c(c2)C(=O)N([C@@H](C)CO)C[C@@H](C)[C@@H](CN(C)C(=O)NC2CCCCC2)OCCCC[C@@H](C)O3)cc1` the relative growth was inactive: 0.994. In the case of `CC(=O)OCC(=O)C1CCC2C3CCC4=CC(=O)CCC4(C)C3CCC12C` (centres undefined), the relative growth is reported as inactive: 1.01. In the case of `C[C@H](CO)N1C[C@H](C)[C@@H](CN(C)C(=O)Nc2ccc(F)cc2)Oc2ccc(NS(C)(=O)=O)cc2C1=O`, the relative growth is reported as inactive: 0.981. For `C[C@H](CO)N1C[C@H](C)[C@H](CN(C)S(=O)(=O)c2cccs2)OCCCC[C@H](C)Oc2ccc(NC(=O)Cc3ccccc3)cc2C1=O`, the relative growth was inactive: 1. In the case of `Cc1nc2ccc([N+](=O)[O-])cc2s1`, the relative growth is reported as inactive: 0.992. With `O=C(C[C@H]1CC[C@H]2[C@@H](COC[C@H](O)CN2S(=O)(=O)c2cccc(Cl)c2)O1)NCc1ccncn1` the relative growth was inactive: 1. `C[C@H]1CC=CC[C@H](c2ccc3c(c2)OCO3)NC(=O)[C@@H](Cc2ccccc2)N(C)C(=O)c2ccccc2O1` was tested, and the relative growth was inactive: 1. In the case of `CC(C)(C)OC(=O)C[C@H]1CC=CC[C@H](CC(=O)N(CCO)Cc2ccccc2)C(=O)N2CCC[C@@H]2COC1=O`, the relative growth is reported as inactive: 1.04. For `COCC#Cc1ccc2c(c1)O[C@H](CN(C)Cc1ccc(F)cc1)[C@H](C)CN([C@H](C)CO)S2(=O)=O`, the relative growth was inactive: 1.03. `O=C(CCCCCCC(=O)Nc1ccccc1O)N/N=C/[C@H](O)[C@@H](O)[C@H](O[C@@H]1O[C@H](CO)[C@H](O)[C@H](O)[C@H]1O)[C@H](O)CO` was tested, and the relative growth was inactive: 0.987. For `O=C(O)C1CC(C2CCCCN2)CN2CCCCC12` (centres undefined), the relative growth was inactive: 0.976. For `CCCCCCNC(=O)n1cc(F)c(=O)[nH]c1=O`, the relative growth was inactive: 0.463. `CCCC(=O)Nc1ccc2c(c1)C(=O)N(C)C[C@@H](OC)[C@H](C)CN(C(=O)Cc1ccccn1)[C@H](C)CO2` was tested, and the relative growth was inactive: 0.987. In the case of `C[C@H]1CN([C@@H](C)CO)C(=O)c2cc(C#CC3CCCC3)cnc2O[C@H]1CN(C)C(=O)Cc1ccccn1`, the relative growth is reported as inactive: 1.02. In the case of `[O-]/[N+](=N\O[C@H]1O[C@H](CO)[C@@H](O)[C@H](O)[C@@H]1O)N1CCCC1`, the relative growth is reported as inactive: 0.968.
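Further: static incubation at 37 °C against the wild-type strain, values averaged over two biological replicates.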
